Measurements as given in publication PMC9769115, “Native mass spectrometric studies of IscSU reveal a concerted, sulfur-initiated mechanism of iron–sulfur cluster assembly†” (Chemical Science, 2022).

Target: T1, IscS, cysteine desulfurase (E. coli), dimer with PLP bound (E. coli, UniProt P0A6B7 1-404, pyridoxal phosphate (PLP) bound to each protomer)
T1 construct: IscS, cysteine desulfurase of E. coli; Made from pET-24d as a fusion with His-tagged GST and cleaved with TEV protease; also called (IscS)2; IscS dimer; source: E. coli BL21 DE3, expressed with 100 μM PLP, purified (His-Trap, TEV cleavage)
T1 sequence (looked up): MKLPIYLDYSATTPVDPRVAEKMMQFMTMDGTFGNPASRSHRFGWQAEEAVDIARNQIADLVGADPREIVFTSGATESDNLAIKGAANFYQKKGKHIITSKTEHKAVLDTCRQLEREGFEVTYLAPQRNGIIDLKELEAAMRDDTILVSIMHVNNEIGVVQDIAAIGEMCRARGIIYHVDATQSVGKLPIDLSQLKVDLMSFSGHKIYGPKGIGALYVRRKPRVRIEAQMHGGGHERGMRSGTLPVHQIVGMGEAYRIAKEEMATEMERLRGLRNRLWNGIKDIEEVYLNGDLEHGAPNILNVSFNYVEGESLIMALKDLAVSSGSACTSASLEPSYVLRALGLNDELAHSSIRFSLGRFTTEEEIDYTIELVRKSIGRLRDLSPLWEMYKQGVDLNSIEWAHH
Assay: native MS; IscS (8 μM) titrated with as isolated IscU, both in solution in 250 mM ammonium acetate pH 8.0; Waters Synapt XS; fractional intensities fitted (Dynafit) to a sequential binding model for 1-2 IscU per IscS dimer
Settings: both partners purified

B1: IscU, Fe-S cluster scaffold protein (E. coli) (natural protein, UniProt P0ACD4 1-128, looked up)
chain: MAYSEKVIDHYENPRNVGSFDNNDENVGSGMVGAPACGDVMKLQIKVNDEGIIEDARFKTYGCGSAIASSSLVTEWVKGKSLDEAQAIKNTDIAEELELPPVKIHCSILAEDAIKAAIADYKSKREAK
notes: IscU, scaffold protein of E. coli; One polypeptide used in three metal states; As isolated it holds ~0.5 Zn2+ per protein; The apo form (25-fold DTPA) holds ~0.01 Zn2+ per protein; The Zn2+-loaded form was made with 2-fold ZnSO4; Each assay's format names the state used; also called as isolated IscU; apo-IscU; source: E. coli BL21 DE3, grown with 8.3 mg per L ZnSO4, purified (His-Trap, TEV …)
**Q.** For B1, which Kd is on record?
**A.** 3.26 ± 0.46 µM

**Q.** What about the “stoichiometry N” value of the same binder?
**A.** 2 IscU per IscS dimer
